Data taken from paper PMC12820563.
Some of the results follow. The list includes weakly bound sequences.

What follows are sequences tested against T1, MBP-FoxP3dN (UniProt Q99JB6) (assay: PD-seq (MBP pull-down with sequencing)). Conditions: 20 mM Tris-HCl pH 7.5, 100 mM NaCl, 1.5 mM MgCl2, 0.4 uM protein, 0.1 uM dsDNA library, 30 min, room temperature, amylose pull-down; high values mean tight binding; double strand, one strand shown.
T1 sequence: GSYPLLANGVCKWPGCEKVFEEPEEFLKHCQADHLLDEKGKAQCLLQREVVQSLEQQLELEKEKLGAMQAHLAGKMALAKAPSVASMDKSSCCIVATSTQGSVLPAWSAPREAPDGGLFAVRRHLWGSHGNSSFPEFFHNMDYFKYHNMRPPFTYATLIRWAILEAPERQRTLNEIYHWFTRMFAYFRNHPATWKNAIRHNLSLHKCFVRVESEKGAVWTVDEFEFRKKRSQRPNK
“GATGATTGTTCTCCCAGCTGATGAATTTATCTGGTCGAGTAAACAAATTTTCCTAATCTTTCTGTTCAAGCGCCATCTAC” showed a binding signal (RPM ratio (pull-down/input)) of 0.578. With “GATGATTGTTCTCCCAGCTGATGAATTCGCGGTATCGAGTAAACAAATTTTCCTAATCTTTCTGTTCAAGCGCCATCTAC” the binding signal (RPM ratio (pull-down/input)) was 0.631. “GATGATTGTTCTCCCAGCTGATGAATTAACTTCTTCGAGTAAACAAATTTTCCTAATCTTTCTGTTCAAGCGCCATCTAC” gave a binding signal (RPM ratio (pull-down/input)) of 0.237. In the case of “GATGATTGTTCTCCCAGCTGATGAATTGCTCAGTTCGAGTAAACAAATTTTCCTAATCTTTCTGTTCAAGCGCCATCTAC”, the binding signal (RPM ratio (pull-down/input)) is reported as 0.462. “GATGATTGTTCTCCCAGCTGATGAATTATACAGTTCGAGTAAACAAATTTTCCTAATCTTTCTGTTCAAGCGCCATCTAC” gave a binding signal (RPM ratio (pull-down/input)) of 0.621. “GATGATTGTTCTCCCAGCTGATGAATTCTGCGCATCGAGTAAACAAATTTTCCTAATCTTTCTGTTCAAGCGCCATCTAC” was tested, and the binding signal (RPM ratio (pull-down/input)) was 1.5. Work on “GATGATTGTTCTCCCAGCTGATGAATTATGTCTTTCGAGTAAACAAATTTTCCTAATCTTTCTGTTCAAGCGCCATCTAC” yielded a binding signal (RPM ratio (pull-down/input)) of 1.78. Work on “GATGATTGTTCTCCCAGCTGATGAATTAACTGATTCGAGTAAACAAATTTTCCTAATCTTTCTGTTCAAGCGCCATCTAC” yielded a binding signal (RPM ratio (pull-down/input)) of 0.354. Work on “GATGATTGTTCTCCCAGCTGATGAATTTCAAGGGTCGAGTAAACAAATTTTCCTAATCTTTCTGTTCAAGCGCCATCTAC” yielded a binding signal (RPM ratio (pull-down/input)) of 0.206. “GATGATTGTTCTCCCAGCTGATGAATTTTGTGTATCGAGTAAACAAATTTTCCTAATCTTTCTGTTCAAGCGCCATCTAC” showed a binding signal (RPM ratio (pull-down/input)) of 6.55. Sequence “GATGATTGTTCTCCCAGCTGATGAATTAGGTAGGTCGAGTAAACAAATTTTCCTAATCTTTCTGTTCAAGCGCCATCTAC” has a binding signal (RPM ratio (pull-down/input)) of 0.461. Sequence “GATGATTGTTCTCCCAGCTGATGAATTGAAGAACTCGAGTAAACAAATTTTCCTAATCTTTCTGTTCAAGCGCCATCTAC” has a binding signal (RPM ratio (pull-down/input)) of 0.164. For “GATGATTGTTCTCCCAGCTGATGAATTTGAACGTTCGAGTAAACAAATTTTCCTAATCTTTCTGTTCAAGCGCCATCTAC”, the binding signal (RPM ratio (pull-down/input)) was 0.366. “GATGATTGTTCTCCCAGCTGATGAATTGGGTTATTCGAGTAAACAAATTTTCCTAATCTTTCTGTTCAAGCGCCATCTAC” showed a binding signal (RPM ratio (pull-down/input)) of 1.43. With “GATGATTGTTCTCCCAGCTGATGAATTGCCTACGTCGAGTAAACAAATTTTCCTAATCTTTCTGTTCAAGCGCCATCTAC” the binding signal (RPM ratio (pull-down/input)) was 0.553. “GATGATTGTTCTCCCAGCTGATGAATTTTCGGGCTCGAGTAAACAAATTTTCCTAATCTTTCTGTTCAAGCGCCATCTAC” gave a binding signal (RPM ratio (pull-down/input)) of 0.222. For “GATGATTGTTCTCCCAGCTGATGAATTGTGTGCGTCGAGTAAACAAATTTTCCTAATCTTTCTGTTCAAGCGCCATCTAC”, the binding signal (RPM ratio (pull-down/input)) was 2.16. “GATGATTGTTCTCCCAGCTGATGAATTGAAGCTTTCGAGTAAACAAATTTTCCTAATCTTTCTGTTCAAGCGCCATCTAC” showed a binding signal (RPM ratio (pull-down/input)) of 0.758. Work on “GATGATTGTTCTCCCAGCTGATGAATTGCACTGATCGAGTAAACAAATTTTCCTAATCTTTCTGTTCAAGCGCCATCTAC” yielded a binding signal (RPM ratio (pull-down/input)) of 0.683. “GATGATTGTTCTCCCAGCTGATGAATTTTCACAATCGAGTAAACAAATTTTCCTAATCTTTCTGTTCAAGCGCCATCTAC” showed a binding signal (RPM ratio (pull-down/input)) of 0.448. “GATGATTGTTCTCCCAGCTGATGAATTCGGTCTGTCGAGTAAACAAATTTTCCTAATCTTTCTGTTCAAGCGCCATCTAC” was tested, and the binding signal (RPM ratio (pull-down/input)) was 0.415. “GATGATTGTTCTCCCAGCTGATGAATTGATAACCTCGAGTAAACAAATTTTCCTAATCTTTCTGTTCAAGCGCCATCTAC” gave a binding signal (RPM ratio (pull-down/input)) of 0.405. In the case of “GATGATTGTTCTCCCAGCTGATGAATTGAGGTTATCGAGTAAACAAATTTTCCTAATCTTTCTGTTCAAGCGCCATCTAC”, the binding signal (RPM ratio (pull-down/input)) is reported as 0.693. “GATGATTGTTCTCCCAGCTGATGAATTGGGGGACTCGAGTAAACAAATTTTCCTAATCTTTCTGTTCAAGCGCCATCTAC” gave a binding signal (RPM ratio (pull-down/input)) of 0.448. “GATGATTGTTCTCCCAGCTGATGAATTATTCACTTCGAGTAAACAAATTTTCCTAATCTTTCTGTTCAAGCGCCATCTAC” gave a binding signal (RPM ratio (pull-down/input)) of 0.347. Sequence “GATGATTGTTCTCCCAGCTGATGAATTACCCCGATCGAGTAAACAAATTTTCCTAATCTTTCTGTTCAAGCGCCATCTAC” has a binding signal (RPM ratio (pull-down/input)) of 0.236. With “GATGATTGTTCTCCCAGCTGATGAATTAAACGATTCGAGTAAACAAATTTTCCTAATCTTTCTGTTCAAGCGCCATCTAC” the binding signal (RPM ratio (pull-down/input)) was 0.351. “GATGATTGTTCTCCCAGCTGATGAATTGCTAGTATCGAGTAAACAAATTTTCCTAATCTTTCTGTTCAAGCGCCATCTAC” gave a binding signal (RPM ratio (pull-down/input)) of 1.12. Work on “GATGATTGTTCTCCCAGCTGATGAATTATTCCGTTCGAGTAAACAAATTTTCCTAATCTTTCTGTTCAAGCGCCATCTAC” yielded a binding signal (RPM ratio (pull-down/input)) of 0.301. Work on “GATGATTGTTCTCCCAGCTGATGAATTTTCGATATCGAGTAAACAAATTTTCCTAATCTTTCTGTTCAAGCGCCATCTAC” yielded a binding signal (RPM ratio (pull-down/input)) of 0.451. “GATGATTGTTCTCCCAGCTGATGAATTCCGTAGTTCGAGTAAACAAATTTTCCTAATCTTTCTGTTCAAGCGCCATCTAC” was tested, and the binding signal (RPM ratio (pull-down/input)) was 0.804. Work on “GATGATTGTTCTCCCAGCTGATGAATTTCGGGGTTCGAGTAAACAAATTTTCCTAATCTTTCTGTTCAAGCGCCATCTAC” yielded a binding signal (RPM ratio (pull-down/input)) of 0.424. Sequence “GATGATTGTTCTCCCAGCTGATGAATTATTTTCATCGAGTAAACAAATTTTCCTAATCTTTCTGTTCAAGCGCCATCTAC” has a binding signal (RPM ratio (pull-down/input)) of 0.748. With “GATGATTGTTCTCCCAGCTGATGAATTCCCTAAATCGAGTAAACAAATTTTCCTAATCTTTCTGTTCAAGCGCCATCTAC” the binding signal (RPM ratio (pull-down/input)) was 0.213. Sequence “GATGATTGTTCTCCCAGCTGATGAATTAACGAAGTCGAGTAAACAAATTTTCCTAATCTTTCTGTTCAAGCGCCATCTAC” has a binding signal (RPM ratio (pull-down/input)) of 0.2. “GATGATTGTTCTCCCAGCTGATGAATTGCCAAGCTCGAGTAAACAAATTTTCCTAATCTTTCTGTTCAAGCGCCATCTAC” showed a binding signal (RPM ratio (pull-down/input)) of 0.436. For “GATGATTGTTCTCCCAGCTGATGAATTGCATACCTCGAGTAAACAAATTTTCCTAATCTTTCTGTTCAAGCGCCATCTAC”, the binding signal (RPM ratio (pull-down/input)) was 1.09. With “GATGATTGTTCTCCCAGCTGATGAATTTATCACCTCGAGTAAACAAATTTTCCTAATCTTTCTGTTCAAGCGCCATCTAC” the binding signal (RPM ratio (pull-down/input)) was 2.18. With “GATGATTGTTCTCCCAGCTGATGAATTTGAACAGTCGAGTAAACAAATTTTCCTAATCTTTCTGTTCAAGCGCCATCTAC” the binding signal (RPM ratio (pull-down/input)) was 0.234. “GATGATTGTTCTCCCAGCTGATGAATTGACTTTGTCGAGTAAACAAATTTTCCTAATCTTTCTGTTCAAGCGCCATCTAC” gave a binding signal (RPM ratio (pull-down/input)) of 0.639.
